# Measurements: the supplement of paper PMC3334620
# Over roughly 33,000 sequences, “E-score (-0.5 to 0.5)” has its median near -0.04; the highest 2% begin near 0.36. Some of the results follow.
# Biological target: T1, Hmlalpha2 (UniProt P0CY09)
# T1 sequence: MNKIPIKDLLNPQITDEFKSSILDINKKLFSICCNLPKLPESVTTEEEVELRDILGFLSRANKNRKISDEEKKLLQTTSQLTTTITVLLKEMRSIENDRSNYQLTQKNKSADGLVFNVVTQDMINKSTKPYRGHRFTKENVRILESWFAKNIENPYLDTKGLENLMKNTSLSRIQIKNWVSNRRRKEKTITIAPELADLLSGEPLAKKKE
# Assay: PBM E-score (8-mer binding enrichment) (E-score (-0.5 to 0.5)); higher = stronger / more preferred TF binding; most listed sequences are background and not binding sites
# Conditions: protein concentration: 200 nM; construct: GST-full length
# Method in brief: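 Full-length yeast transcription factors or their DNA-binding domains, GST-tagged and expressed with PURExpress, were applied at about 100-200 nM to universal all-10-mer Agilent arrays. These arrays had been made double-stranded by primer extension on fresh or once-stripped slides. Detection used fluorescent anti-GST, normalisation used masliner, and E-scores for ungapped eight-base words pooled with reverse complements came from the Universal PBM Analysis Suite.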
row,Sequence,PBM E-score
1,ACCAACGC,0.0354
2,AGGATAAA,0.0806
3,AATTCGCG,0.123
4,AGGAAACA,0.151
5,GTATTCTA,0.27
6,ATTGTTAG,0.0804
7,CTGATGGC,-0.211
8,AATCAGCA,0.159
9,ACAACATA,0.382
10,GACGACCA,-0.102
11,AACGCTCA,0.0165
12,CCTGCCCC,-0.338
13,CCACTTAG,-0.0026
14,CTATTATC,0.113
15,CTCTAAGA,-0.0651
16,GACTCAAA,-0.114
17,CAATCTGC,-0.0469
18,CAGCGTCC,-0.0516
19,GATGAGTA,0.203
20,CAAACACC,-0.0563
21,ATTCCGGC,-0.07
22,GTGGCTGA,-0.248
23,GTAGGGAA,0.0519
24,GTCTTACA,0.347
25,ACAGCTTC,-0.0584

row,Sequence,PBM E-score
1,CAAAACCA,0.0675
2,ATAAGTGC,-0.201
3,GAATCTTA,-0.127
4,AAAACCTG,-0.037
5,GATTCACA,0.215
6,GTCTCAAA,-0.0447
7,CCCTCGTC,-0.218
8,CGTCCTGA,-0.218
9,CTCAAAAC,0.0559
10,CGGGATGA,-0.211
11,CAGTTTAG,-0.0949
12,CAAACCTC,-0.185
13,AGAGTCGG,-0.129
14,TCTACGCA,0.353
15,GAACTCGA,-0.0139
16,AGAAAAGA,-0.0803
17,CACCAATG,-0.0695
18,AACCCGTG,-0.114
19,AACTTGCC,0.0815
20,CGAAGTTC,-0.0934
21,AAAAATCT,0.145
22,AATAGTGG,0.14
23,TCTAAGCA,-0.0643
24,GGATGTGA,0.0213
25,GCAACCGA,-0.29

row,Sequence,PBM E-score
1,GAACCCGC,-0.25
2,AACGAGGA,0.0594
3,AGAGTTAA,0.166
4,CGGTCGGC,-0.275
5,GGAATTCC,-0.383
6,ATAATCCC,-0.0295
7,AAGTCACG,-0.162
8,ATAACCAA,0.0665
9,CAAAATCC,0.0149
10,AGCCACAA,-0.138
11,AGTTTAGC,-0.056
12,CAGTTTAC,0.231
13,AATGCACG,0.171
14,GACCTCGC,-0.148
15,GAAGACAC,0.0337
16,CCGATGGA,-0.256
17,CGTTTAAA,0.258
18,ATGCGTTA,0.326
19,ATACGGAG,-0.0902
20,ATTTCGAG,0.00649
21,CGTAGTAG,0.0765
22,AATAGCAA,0.165
23,CGTAGCGC,-0.195
24,GAATCGCA,-0.172
25,GCTTCTTA,0.0403

row,Sequence,PBM E-score
1,ACCGATAC,-0.0475
2,ACAAGACA,0.3
3,AGGGGCAG,-0.228
4,AAAAGCAA,0.197
5,ATTGGTAG,0.0446
6,ATCCCGAC,0.00533
7,GGTAAGTA,0.162
8,GCCGTAGA,0.065
9,CCTGACTA,0.191
10,TGAAGCAA,0.0475
11,ATAATCTC,0.0435
12,ATGCCTAC,-0.224
13,GTTTGTCA,0.118
14,AGAATTAG,-0.0744
15,AATCGAGA,-0.0158
16,ATCGTTAG,0.00138
17,CCGCGCTC,-0.0506
18,AACCTGCT,-0.164
19,CATTTACG,0.303
20,GGTCTTTA,0.161
21,ATGCGAAC,0.0438
22,CCGCGAAG,-0.274
23,AATTGTAG,0.0979
24,AAAAGCGG,-0.174
25,AGTGTCCA,0.0827

row,Sequence,PBM E-score
1,CGACGCCA,-0.124
2,AAGACAGG,0.00086
3,ACCTCGAT,-0.157
4,GAGAGTCC,-0.394
5,CTTTATGA,-0.0961
6,AAATAAAG,-0.0863
7,ATCACGAA,0.0229
8,AGCACAGG,-0.115
9,CGACTAAA,-0.141
10,TCACTAAA,0.0546
11,AGAACTGC,-0.0301
12,AGATCACG,-0.00459
13,GACAGTTA,-0.0426
14,TCCGCGAA,0.0828
15,AGCTTAGG,-0.136
16,CCGGTCCA,-0.278
17,CAGGTCCG,-0.213
18,ACCTAGAC,-0.203
19,AGTAGGTC,-0.0261
20,CCAGGTGC,-0.17
21,AGGTCCCA,-0.23
22,AGTAGGAA,-0.0598
23,CGGGGGAA,-0.188
24,CTCACCTA,-0.0554
25,CACGTTTA,0.298

row,Sequence,PBM E-score
1,GGTGTGCA,-0.155
2,TACTCCTA,0.0754
3,GTGAACCA,0.181
4,CTAGTTCC,0.105
5,CTCCAAAC,-0.0262
6,GTCATAGA,-0.121
7,CCGTGAAG,-0.231
8,ACGTACAT,0.381
9,ATTGGTGG,-0.0956
10,CATCGGTA,-0.217
11,CTTAATCC,-0.244
12,GGGGTGAA,-0.218
13,GCAGTCCC,-0.267
14,CTTTCTGC,0.00433
15,GTTCTTAA,0.0993
16,AACTATAG,-0.096
17,CAGAATCA,0.0871
18,GGTGCACC,-0.0854
19,CTCGACCA,-0.163
20,AATTGGAC,0.0202
21,CCATGCGC,-0.114
22,AGGACCCA,-0.338
23,GGCTACGA,0.00875
24,ACGCAGTC,0.0216
25,CATCATCC,-0.0906

row,Sequence,PBM E-score
1,CCTAGTAA,0.109
2,AATGTACA,0.366
3,ATTGCTCG,-0.134
4,CTTTCAAA,-0.00235
5,CCGTCTAC,0.0117
6,CACGCCTC,0.0108
7,CCGAGGCA,-0.191
8,GCACTTAA,0.182
9,GCCGAATA,0.0197
10,AAACGGAT,0.125
11,ACCTGACT,0.0498
12,AAATCGGC,-0.196
13,AGCAACCA,-0.101
14,CGGTGACC,-0.224
15,AGTATTAG,0.0572
16,AAAAACCT,0.0567
17,CTGCCCGA,-0.0567
18,AAAGGGTA,0.136
19,AAGCGCCC,-0.344
20,CAAGGGGA,-0.0247
21,CGAGTCTA,-0.175
22,TCAAATCA,0.113
